Test results taken from the RNAGym collection of RNA variant scans (doi:10.1073/pnas.2313332121).
Variants at the background level are over-represented here.

B1: TPR 5TU (parent)
chain: GGAUCUUCUCGAUCUAACAAAAAAGACAAAUCUGCCACAAAGCUUGAGAGCAUCUUCGGAUGCAGAGGCGGCAGCCUUCGGUGGCGCGAUAGCGCCAACGUUCUCAACUAUGACACGCAAAACGCGUGCUCCGUUGAAUGGAGUUUAUCAUG

Variants of: B1
Experiment: polymerase ribozyme fitness, log enrichment relative to wild type (log ratio); higher = more active; in vitro selection for triplet polymerase activity
In short: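 One round of in vitro selection, in triplicate, was applied to PCR-built, transcribed mutant libraries of each subunit of a heterodimeric triplet polymerase ribozyme. The steps were annealing with a biotinylated primer, partner subunit and triplets, incubation frozen at −7 °C, gel excision of extended constructs, streptavidin-bead capture and RT-PCR. Fitness is the logarithm, base 2, of genotype enrichment over wild-type enrichment from inverse-variance-weighted replicate averages of Illumina-sequenced inputs and outputs, keeping genotypes with ≥10 input reads and ≥1 read per output.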

Variant | polymerase ribozyme fitness (log ratio)
G25C G48C A66G C93A | ≤ -4.2
G25C G50C G65U A89C A91C G126A | ≤ -4.2
G25C G50U A91U | ≤ -4.2
G25C G86A G94U | -3.91
G25C G88A C95U C105U C116A G136U G143A | ≤ -4.2
G25C U31A C72G U130G A147U A150C | ≤ -4.2
G25C U31A C96G | -1.31
G25C U31C C32G U55A C75G C76U C79A A115G A120C C129A | ≤ -4.2
G25C U33C G50A C72U C87A A97G U111A | ≤ -4.2
G25C U33C G65U | ≤ -4.2
G25C U33G G83U G124C A137G U139A | ≤ -4.2
G25C U82A G94U C118U G143U | ≤ -4.2
G25U A26C C27U G83C U109A | ≤ -4.2
G25U A26U C32U U90A C96A A120G G126U | ≤ -4.2
G25U A29U C38A A60C U61A C69G G92A | ≤ -4.2
G25U A29U C43A A64U C93U C131U | ≤ -4.2
G25U A29U C51U G83C C105A C125A U151G | ≤ -4.2
G25U A30C A47C C99G U101G C105A | ≤ -4.2
G25U A37C A64G G84A C99A U102G | ≤ -4.2
G25U A37C U45A U135A G140U | ≤ -4.2
G25U A37U G58A G86C G92A | ≤ -4.2

Variant | polymerase ribozyme fitness (log ratio)
G25U A39C C87U C118U | ≤ -4.2
G25U A47G C79A G84C C99U U109G C116U | ≤ -4.2
G25U A47U A52G G81A G86C A98G G133U G136C G143U | ≤ -4.2
G25U A49G A52U C85G C125U | ≤ -4.2
G25U A49G G58C G83A A138U U144A | ≤ -4.2
G25U A49G G59U C99A | ≤ -4.2
G25U A52C C63U G88C U127C | ≤ -4.2
G25U A52C C87A U90G A142G | ≤ -4.2
G25U A52C U53A U56G U77A A91U U144A U148C | ≤ -4.2
G25U A52U U56A C85A C118U U134G G141C | ≤ -4.2
G25U A64U C87G G143U | ≤ -4.2
G25U A66G G92A C125U A150C | ≤ -4.2
G25U A73G C87G | ≤ -4.2
G25U A113C C114A | ≤ -4.2
G25U A138C | ≤ -4.2
G25U C27G A52G C85A | ≤ -4.2
G25U C35U G59U C95G C103U | ≤ -4.2
G25U C35U G86C C103U G133U | ≤ -4.2
G25U C36U A41C C76U C123G U144G U145A | ≤ -4.2
G25U C36U C72G | ≤ -4.2
G25U C36U G67C C85G C87U A89U | ≤ -4.2

Variant | polymerase ribozyme fitness (log ratio)
G25U C36U U61G G65C A73G C96A U127G G143C | ≤ -4.2
G25U C51A C75U A89C C93U A121G C123U A137G G143U | ≤ -4.2
G25U C51G G94C A106G C118G A147C | ≤ -4.2
G25U C54A G68C G86U C103G G133A A142C G152A | ≤ -4.2
G25U C54G G74A C96A A138C | ≤ -4.2
G25U C54G G74U U82G C85U C131A U144A | ≤ -4.2
G25U C57A C63U G94A C99G C132A | ≤ -4.2
G25U C57A U61A C93A U148A | ≤ -4.2
G25U C57G A64C C105U A106U C116U | ≤ -4.2
G25U C57G G65U C87A C95A C108G | ≤ -4.2
G25U C69G C85U G128A | ≤ -4.2
G25U C76G C96A G140U G141A | ≤ -4.2
G25U C76G G84U G136U C149U | ≤ -4.2
G25U C76U U77C A98U U139C A150C | ≤ -4.2
G25U C79A G88A A110U | ≤ -4.2
G25U C85G | -3.79
G25U C85U A91G G92C A107U U146A | ≤ -4.2
G25U C93A | ≤ -4.2
G25U C95U C149G | ≤ -4.2
G25U C103G | -3.2
G25U G34U A47C A89G | ≤ -4.2

Variant | polymerase ribozyme fitness (log ratio)
G25U G42A C87G | ≤ -4.2
G25U G46A C57U C69A G128U A138U | ≤ -4.2
G25U G46A C87U G92U C114U | ≤ -4.2
G25U G46C G50C A66G U90C G100C U104A U146C G152A | ≤ -4.2
G25U G48A G74U G88U | ≤ -4.2
G25U G48C A52G C54G C57A A60G C96G U101G | ≤ -4.2
G25U G48C G84A U90G C99G U146C | ≤ -4.2
G25U G48C U102C G117A G133C U135A | ≤ -4.2
G25U G50A G92U G117U A150C | ≤ -4.2
G25U G50C A64G G68U G94A A106G | ≤ -4.2
G25U G50C G68C G80C G81U C85U C114U G141U | ≤ -4.2
G25U G50C U56A G65U U146C | ≤ -4.2
G25U G50U C54A A66U A91C | ≤ -4.2
G25U G50U G80C C116A G152U | ≤ -4.2
G25U G58C G62A A73G G88C C96G | ≤ -4.2
G25U G59A G62C C116U U145A | -1.79
G25U G59U G92C A138U | ≤ -4.2
G25U G65C U109G A121C | ≤ -4.2
G25U G70A U77G C87A C93A C105U U134G | ≤ -4.2
G25U G81A G94U A120U G141C | -3.76
